Source: the supplement of paper PMC11417369
± gives the standard deviation of the averaged measurements. The list shows a part of the results.

test system: PfAP2-LT AP2 domain (GST-tagged); experiment: gcPBM binding intensity (ln(normalized median fluorescence intensity)); higher = stronger DNA binding
In short: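 For binding intensity, the highest Masliner-normalised natural-log median intensity across replicate spots of either probe orientation was taken. Protein bound to the array was stained with Alexa488 anti-GST antibody and scanned at 488 nm. The protein, GST-tagged P. falciparum DNA-binding domains from E. coli at about 25 μg on average, had been applied for 1 h to an Agilent 4 × 180k array of primer-extended double-stranded 36-bp intergenic genomic probes and negative controls.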

Row | Sequence | gcPBM binding intensity (ln)
1 | TCACTTAATATTTAATGTACATAAGGTTCTTGTGCC [XGTACX_site1822] | 8.66 ± 0.47
2 | TATAAATTAAAATGTGTGCACTAAATTGAAATAGAA | 9.02 ± 0.42
3 | ATATATATATATAATAGTACATATATTTTTATTGGT [XGTACX_site711] | 8.8 ± 0.29
4 | ATATTTTTTACAAATTGTACATTTTTACAATTATTA [XGTACX_site7496] | 8.76 ± 0.47
5 | TAACCTAAAATAACTACACACACATAAAAAAAAAAA [CACACA_site8807] | 9.45 ± 0.39
6 | TTATATAACATTATTTGTACATATAAAATATGGATG [XGTACX_site8526] | 8.49 ± 0.39
7 | AAAAAAAATTTATGGGGTACATATTATAATATTATA [XGTACX_site3395] | 8.73 ± 0.24
8 | TATATAACCTATAGCACACATATATAATATATATTA [CACACA_site1834] | 8.82 ± 0.35
9 | TTCTATTCAAATGCAAAATTATTAAATAAAAAATAA [GTGCAC_negctrl_site708] | 8.31 ± 0.43
10 | TTATTTTTTTTAAATTGTACAAGGAACAGTGAAAAA [XGTACX_site4380] | 8.34 ± 0.41
11 | TAAATGTCTTCAATGAAGTGGAAATGCTGTTATATA [CACACA_negctrl_site1155] | 8.54 ± 0.31
12 | TTTGTGTGTACGCGTGTGCACATTTTTTTTTTTTTT | 9.33 ± 0.28
13 | AAAAAAAATTTTAATTGTACAAAAAAAAAAAATATA [XGTACX_site2259] | 8.46 ± 0.66
14 | TATATATGGGTAACCTTTTTTTTTTTTTTTCGAACA [CACACA_negctrl_site1303] | 8.36 ± 0.52
15 | GGAAAATATGTTTGTGTGCACAGCTAGCTATTTGTA [GTGCAC_site9637] | 9.27 ± 0.26
16 | AATTTTTTTTGTCTCTGTACTTATAAAATATATATG [XGTACX_site4742] | 8.77 ± 0.43
17 | TTTTTTTTTTTCAAGCGTACAAAAAATATATTTAAA [XGTACX_site5327] | 8.2 ± 0.45
18 | AAATAAATTGATTCAACACACACATATGTAGGAAGT [CACACA_site9068] | 9.4 ± 0.37
19 | TGCAATTTAATATGAGTGCATATATTGAGAAAATAC | 8.73 ± 0.44

Row | Sequence | gcPBM binding intensity (ln)
20 | AAAGAAATTATTTGTTGTACATATGTTATTTTTTTT [XGTACX_site7570] | 8.8 ± 0.47
21 | AAGGATATAACATACACACACACACCCATATATATA [CACACA_site4142] | 10.08 ± 0.099
22 | TAAAACCTTTAAAATACATGCAGCATATATAAGTAA [TGCATGCA_site181] | 8.76 ± 0.42
23 | ATATCATGTTAAGATTGTACATATATATAATATATA [XGTACX_site7626] | 8.64 ± 0.42
24 | AATAAATTGGTATGTTGTACAAAGTAACCATCGATT [XGTACX_site2823] | 8.9 ± 0.43
25 | ATTCATAATTTATTATGTACATATATATAATATATT [XGTACX_site1711] | 8.71 ± 0.4
26 | AAATAACAAATTTTTAAAATGTATATATATATATAT [TGCATGCA_negctrl_site219] | 9.51 ± 0.12
27 | TTTTAAATTTAATTTACACACTTTTCATAGCATTGA [CACACA_site3794] | 8.77 ± 0.46
28 | TTCTATTCACATTTTACACACGTCCATCGCATTTTA [CACACA_site3453] | 9.44 ± 0.46
29 | ATTGTGCTCATCAGCACACACAACATCATGTAATAA [CACACA_site1863] | 9.13 ± 0.42
30 | TTATATTTATAAAATTGTATACCCCTTCTAACTTTC [CACACA_negctrl_site250] | 8.59 ± 0.38
31 | TATATATATGGTTTAACACACGAGATAAAAGTATAT [CACACA_site2867] | 8.94 ± 0.47
32 | TATATGGTATGTATTACACACATATCACATATAGAT [CACACA_site7426] | 9.13 ± 0.26
33 | TATATATATATATAATGTACTTATATTTTTTTGAGG [XGTACX_site2638] | 9.02 ± 0.54
34 | TTAATTAAAACGAATACACACATAAATATGTAAAAG [CACACA_site6707] | 9.16 ± 0.35
35 | ATATGTATAAGTATGTATATTTATTTATACTTATGT [GTGCAC_negctrl_site221] | 8.88 ± 0.37
36 | AAAAAAAAAAAAAAAAGTACATATATATATTTATAT [XGTACX_site5893] | 8.62 ± 0.36
37 | TTCTTATTTAATGTATCACACACGAGAATAAAAAAT [CACACA_site8992] | 8.76 ± 0.35
38 | ACATTTAATGTTATATGTACATAATATTATAAGTAT [XGTACX_site1393] | 8.83 ± 0.41

Row | Sequence | gcPBM binding intensity (ln)
39 | AATGTAAAAGTAAACACACACATATATTTATACATA [CACACA_site7218] | 9.36 ± 0.35
40 | AGCCATATCTTTTTTGCACACACTACAATAAAACAA [CACACA_site1650] | 9.2 ± 0.28
41 | CATATGGCAATAATTACATGCAAAAAAAAAAAAAAA [TGCATGCA_site578] | 8.72 ± 0.43
42 | ACAGACGTTCAAAGGTGTACGCAAAATGAATAATAT [XGTACX_site7565] | 9.03 ± 0.49
43 | AAAAAAAAGAAAAACACACACATATATATATATAAT [CACACA_site4707] | 9.53 ± 0.42
44 | GTAAATCGACACATACGTACATACATTTATATATAT [XGTACX_site3143] | 9.12 ± 0.39
45 | ACATTATATTTGGACTGTACTAATATATTGTTATAT [XGTACX_site5573] | 8.91 ± 0.42
46 | TATACATATATATATTGTACATATTATATATATATA [XGTACX_site3286] | 8.69 ± 0.37
47 | ATATATATATATATATGTACATATTGTATCTTATAC [XGTACX_site5466] | 9.72 ± 0.16
48 | TATCTTTTTATTTTTTATTTTTTTTTTATAATTTAC [XGTACX_negctrl_site414] | 8.54 ± 0.47
49 | CATAAATCAGCCATAACACACATACATATATACATA [CACACA_site8025] | 9.28 ± 0.42
50 | ACACATATGTCTTCATGTACATAATATATAAATCTT [XGTACX_site3438] | 8.77 ± 0.4
51 | TCATTGAAAATTGTTGCACACATAATAATTAAATAT [CACACA_site8554] | 8.81 ± 0.33
52 | TCTTGTTTATCAACAGCACACACAACAACAACAACA [CACACA_site8046] | 9.29 ± 0.4
53 | TAAAGGTAGATATATTGTACATACACACCTATATAA [XGTACX_site6865] | 8.86 ± 0.4
54 | TGTTAAAAAATGGATGCACACATTAAATAAAAAGTA [CACACA_site1660] | 8.99 ± 0.44
55 | TATATATATACAGTTGCATGTTGTGTTTAAAATTTT [TGCATGCA_site816] | 8.87 ± 0.4
56 | TTATATTTAGTATATGCACACTTTATGTTTGTTATT [CACACA_site5163] | 9.1 ± 0.42
57 | TATAAATACGAACACACACACCTTATAATTACTACT [CACACA_site7827] | 9.76 ± 0.11
